# Results taken from the supplement of paper PMC8728848.
# This is one part of the list.
# B1: CAA (Caragana arborescens) (protein)
# chain: VAVEFDTFDNPDWDPRTKHIGIDVNSIRSNKTTQWGFWNRQVADVDISYEASSKTLNVSLYYPGESYIVTDVVDLKDILPEWVRIGF
# Columns and labels:
# Assay in all cases: glycan array binding signal (z-score within array); higher = stronger binding
# Details in all cases: glycan notation: IUPAC condensed, linker removed
# [1] = target: Gal(a1-3)Gal(b1-4)GlcNAc
# Procedure, shortened: (§1)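 The Consortium for Functional Glycomics database supplied 3228 glycan arrays, of which those lacking an available protein sequence were dropped. The binding signal, a within-array Z-score, was averaged across arrays of the same protein sequence and across linkers. Negative scores can be read as non-binding.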
# [2] = target: Gal(a1-3)Gal(b1-4)GlcNAc(b1-2)Man
# Procedure, shortened: as §1
# [3] = target: Gal(a1-3)Gal(b1-4)GlcNAc(b1-2)Man(a1-3)[Gal(a1-3)Gal(b1-4)GlcNAc(b1-2)Man(a1-6)]Man(b1-4)GlcNAc(b1-4)GlcNAc
# Procedure, shortened: as §1
# [4] = target: Gal(a1-3)Gal(b1-4)GlcNAc(b1-3)GalNAc
# Procedure, shortened: as §1
# [5] = target: Gal(a1-3)Gal(b1-4)GlcNAc(b1-6)GalNAc
# Procedure, shortened: as §1
# [6] = target: Gal(a1-3)Gal(b1-4)[Fuc(a1-3)]GlcNAc
# Procedure, shortened: as §1
# [7] = target: Gal(a1-3)Gal(b1-4)[Fuc(a1-3)]GlcNAc(b1-2)Man(a1-3)[Gal(a1-3)Gal(b1-4)[Fuc(a1-3)]GlcNAc(b1-2)Man(a1-6)]Man(b1-4)GlcNAc(b1-4)GlcNAc
# Procedure, shortened: as §1
# [8] = target: Gal(a1-3)GalNAc
# Procedure, shortened: as §1
# [9] = target: Gal(a1-3)[Gal(a1-4)]Gal(b1-4)GlcNAc
# Procedure, shortened: as §1
# [10] = target: Gal(a1-4)Gal(b1-3)GlcNAc(b1-2)Man(a1-3)[Gal(a1-4)Gal(b1-3)GlcNAc(b1-2)Man(a1-6)]Man(b1-4)GlcNAc(b1-4)GlcNAc
# Procedure, shortened: as §1
# [11] = target: Gal(a1-4)Gal(b1-4)Glc
# Procedure, shortened: as §1
# [12] = target: Gal(a1-4)Gal(b1-4)GlcNAc
# Procedure, shortened: as §1
# [13] = target: Gal(a1-4)Gal(b1-4)GlcNAc(b1-2)Man(a1-3)[Gal(a1-4)Gal(b1-4)GlcNAc(b1-2)Man(a1-6)]Man(b1-4)GlcNAc(b1-4)GlcNAc
# Procedure, shortened: as §1
# [14] = target: Gal(a1-4)Gal(b1-4)GlcNAc(b1-3)Gal(b1-4)Glc
# Procedure, shortened: as §1
# [15] = target: Gal(a1-4)GlcNAc
# Procedure, shortened: as §1
# [16] = target: Gal(a1-6)Glc
# Procedure, shortened: as §1
# [17] = target: Gal(b1-2)Gal
# Procedure, shortened: as §1
# [18] = target: Gal(b1-3)Gal
# Procedure, shortened: as §1
# [19] = target: Gal(b1-3)Gal(b1-4)GlcNAc
# Procedure, shortened: as §1
# [20] = target: Gal(b1-3)GalNAc
# Procedure, shortened: as §1
# [21] = target: Gal(b1-3)GalNAc(a1-3)[Fuc(a1-2)]Gal(b1-4)Glc
# Procedure, shortened: as §1
# [22] = target: Gal(b1-3)GalNAc(a1-3)[Fuc(a1-2)]Gal(b1-4)GlcNAc
# Procedure, shortened: as §1
# [23] = target: Gal(b1-3)GalNAc(b1-3)Gal
# Procedure, shortened: as §1
# [24] = target: Gal(b1-3)GalNAc(b1-3)Gal(a1-4)Gal(b1-4)Glc
# Procedure, shortened: as §1
# [25] = target: Gal(b1-3)GalNAc(b1-4)Gal(b1-4)Glc
# Procedure, shortened: as §1
# [26] = target: Gal(b1-3)GalNAc(b1-4)[Neu5Ac(a2-3)]Gal(b1-4)Glc
# Procedure, shortened: as §1
# [27] = target: Gal(b1-3)GlcNAc
# Procedure, shortened: as §1
# [28] = target: Gal(b1-3)GlcNAc(a1-3)Gal(b1-4)GlcNAc
# Procedure, shortened: as §1
# [29] = target: Gal(b1-3)GlcNAc(a1-6)Gal(b1-4)GlcNAc
# Procedure, shortened: as §1
# [30] = target: Gal(b1-3)GlcNAc(b1-2)Man
# Procedure, shortened: as §1
# [31] = target: Gal(b1-3)GlcNAc(b1-2)Man(a1-3)[Gal(b1-3)GlcNAc(b1-2)Man(a1-6)]Man(b1-4)GlcNAc(b1-4)GlcNAc
# Procedure, shortened: as §1
# [32] = target: Gal(b1-3)GlcNAc(b1-2)Man(a1-3)[Gal(b1-3)GlcNAc(b1-2)Man(a1-6)]Man(b1-4)GlcNAc(b1-4)[Fuc(a1-6)]GlcNAc
# Procedure, shortened: as §1
# [33] = target: Gal(b1-3)GlcNAc(b1-2)Man(a1-3)[GlcNAc(b1-4)][Gal(b1-3)GlcNAc(b1-2)Man(a1-6)]Man(b1-4)GlcNAc(b1-4)GlcNAc
# Procedure, shortened: as §1
# [34] = target: Gal(b1-3)GlcNAc(b1-2)[Gal(b1-3)GlcNAc(b1-6)]Man(a1-6)[Gal(b1-3)GlcNAc(b1-2)Man(a1-3)]Man(b1-4)GlcNAc(b1-4)GlcNAc
# Procedure, shortened: as §1
# [35] = target: Gal(b1-3)GlcNAc(b1-3)Gal(b1-3)GlcNAc
# Procedure, shortened: as §1
# [36] = target: Gal(b1-3)GlcNAc(b1-3)Gal(b1-4)Glc
# Procedure, shortened: as §1
# [37] = target: Gal(b1-3)GlcNAc(b1-3)Gal(b1-4)GlcNAc
# Procedure, shortened: as §1
# [38] = target: Gal(b1-3)GlcNAc(b1-3)Gal(b1-4)GlcNAc(b1-2)Man(a1-3)[Gal(b1-3)GlcNAc(b1-3)Gal(b1-4)GlcNAc(b1-2)Man(a1-6)]Man(b1-4)GlcNAc(b1-4)GlcNAc
# Procedure, shortened: as §1
# [39] = target: Gal(b1-3)GlcNAc(b1-3)Gal(b1-4)GlcNAc(b1-2)[Gal(b1-3)GlcNAc(b1-3)Gal(b1-4)GlcNAc(b1-6)]Man(a1-6)[Gal(b1-3)GlcNAc(b1-3)Gal(b1-4)GlcNAc(b1-2)Man(a1-3)]Man(b1-4)GlcNAc(b1-4)[Fuc(a1-6)]GlcNAc
# Procedure, shortened: as §1
# [40] = target: Gal(b1-3)GlcNAc(b1-3)Gal(b1-4)GlcNAc(b1-3)Gal(b1-4)GlcNAc(b1-2)[Gal(b1-3)GlcNAc(b1-3)Gal(b1-4)GlcNAc(b1-3)Gal(b1-4)GlcNAc(b1-6)]Man(a1-6)[Gal(b1-3)GlcNAc(b1-3)Gal(b1-4)GlcNAc(b1-3)Gal(b1-4)GlcNAc(b1-2)Man(a1-3)]Man(b1-4)GlcNAc(b1-4)[Fuc(a1-6)]GlcNAc
# Procedure, shortened: as §1
# [41] = target: Gal(b1-3)GlcNAc(b1-3)Gal(b1-4)GlcNAc(b1-6)[Gal(b1-3)GlcNAc(b1-3)]Gal(b1-4)Glc
# Procedure, shortened: as §1
# [42] = target: Gal(b1-3)GlcNAc(b1-3)Gal(b1-4)[Fuc(a1-3)]GlcNAc
# Procedure, shortened: as §1
# [43] = target: Gal(b1-3)GlcNAc(b1-3)Gal(b1-4)[Fuc(a1-3)]GlcNAc(b1-6)[Gal(b1-3)GlcNAc(b1-3)]Gal(b1-4)Glc
# Procedure, shortened: as §1
# [44] = target: Gal(b1-3)GlcNAc(b1-3)GalNAc
# Procedure, shortened: as §1
# [45] = target: Gal(b1-3)GlcNAc(b1-6)Gal(b1-4)GlcNAc
# Procedure, shortened: as §1
binder,measurement,setting,value
B1,glycan array binding signal (z-score),[1],-0.238
same,glycan array binding signal (z-score),[2],-0.241
same,glycan array binding signal (z-score),[3],0.634
same,glycan array binding signal (z-score),[4],-0.243
same,glycan array binding signal (z-score),[5],-0.238
same,glycan array binding signal (z-score),[6],-0.236
same,glycan array binding signal (z-score),[7],-0.102
same,glycan array binding signal (z-score),[8],-0.242
same,glycan array binding signal (z-score),[9],-0.248
same,glycan array binding signal (z-score),[10],2.52
same,glycan array binding signal (z-score),[11],-0.225
same,glycan array binding signal (z-score),[12],-0.233
same,glycan array binding signal (z-score),[13],-0.234
same,glycan array binding signal (z-score),[14],-0.234
same,glycan array binding signal (z-score),[15],-0.241
same,glycan array binding signal (z-score),[16],-0.243
same,glycan array binding signal (z-score),[17],-0.239
same,glycan array binding signal (z-score),[18],-0.24
same,glycan array binding signal (z-score),[19],-0.241
same,glycan array binding signal (z-score),[20],-0.242
same,glycan array binding signal (z-score),[21],-0.244
same,glycan array binding signal (z-score),[22],-0.235
same,glycan array binding signal (z-score),[23],-0.241
same,glycan array binding signal (z-score),[24],-0.24
same,glycan array binding signal (z-score),[25],-0.239
same,glycan array binding signal (z-score),[26],-0.241
same,glycan array binding signal (z-score),[27],-0.23
same,glycan array binding signal (z-score),[28],-0.245
same,glycan array binding signal (z-score),[29],-0.24
same,glycan array binding signal (z-score),[30],-0.236
same,glycan array binding signal (z-score),[31],6.61
same,glycan array binding signal (z-score),[32],5.29
same,glycan array binding signal (z-score),[33],1.57
same,glycan array binding signal (z-score),[34],5.63
same,glycan array binding signal (z-score),[35],-0.24
same,glycan array binding signal (z-score),[36],-0.239
same,glycan array binding signal (z-score),[37],-0.246
same,glycan array binding signal (z-score),[38],-0.228
same,glycan array binding signal (z-score),[39],-0.229
same,glycan array binding signal (z-score),[40],-0.219
same,glycan array binding signal (z-score),[41],-0.241
same,glycan array binding signal (z-score),[42],-0.238
same,glycan array binding signal (z-score),[43],-0.244
same,glycan array binding signal (z-score),[44],-0.247
same,glycan array binding signal (z-score),[45],-0.252
